Reference: paper PMC7819943, “Rice protein-binding microarrays: a tool to detect cis-acting elements near promoter regions in rice”
The list shows a part of the results.

biological target: T1, OsWOX13 (Oryza sativa, UniProt Q5QMM3 1-267); assay: protein-binding microarray (RPBM); PBS, 2% BSA, 51.3 ng/ul salmon testes DNA, 50 uM zinc acetate, 200 nM TF, 25 C, 1 h; high values mean tight binding; conditions: protein: recombinant; tags: N-terminal polyhistidine and DsRed monomer fusion (pET32a); label: CyDye5-dUTP incorporated in the synthesized complementary strand; 3' TTTTT single-stranded linker to array surface; dsDNA, one strand shown
T1 sequence: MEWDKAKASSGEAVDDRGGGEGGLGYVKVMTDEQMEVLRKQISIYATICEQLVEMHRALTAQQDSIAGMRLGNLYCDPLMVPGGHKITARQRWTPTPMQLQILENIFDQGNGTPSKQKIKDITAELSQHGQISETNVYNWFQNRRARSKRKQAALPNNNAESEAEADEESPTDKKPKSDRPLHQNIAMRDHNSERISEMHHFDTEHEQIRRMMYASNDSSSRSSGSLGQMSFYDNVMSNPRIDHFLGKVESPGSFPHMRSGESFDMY
In short: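 Transcription factors were each fused at the N-terminus to a polyhistidine tag plus DsRed and expressed in E. coli BL21-CodonPlus before Ni–NTA purification. Binding to a double-stranded custom Agilent array was carried out with 200 nM protein at 25 °C for 1 h in PBS, 2% BSA, salmon testes DNA and 50 µM zinc acetate. The binding signal is per-feature fluorescence intensity, in arbitrary units, on an Axon 4000B scanner.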

Going from “CGGAGAATTAGAGTTGACTGGTCTAGAAAATGTAACGGAACGGAGTCACCTAGTGCAG” to “GCCGATTGCAATTTCGTCATCACTGCGGTTAGGATTACACCGGAGTCACCTAGTGCAG”, the binding signal rises from 5680 fluorescence intensity (a.u.) to 21900 fluorescence intensity (a.u.).

First: GACCATGATTTGGTGTCTGATGGATGTGCAGGTGTTCCACCGGAGTCACCTAGTGCAG
Second: AAGTTATAATTTGAAGTTAGAGGATGGGATAGAAGTAAGACGGAGTCACCTAGTGCAG
The binding signal of the first is higher: 33100 fluorescence intensity (a.u.) for the first, 3780 fluorescence intensity (a.u.) for the second.

Going from “GTGAGATAAATTAATGGTCAAGTTTGTGTCCAGAGTTGATCGGAGTCACCTAGTGCAG” to “GTCTAATAACAAAACAAATTACAGAATCCACCTATAAACCCGGAGTCACCTAGTGCAG”, the binding signal rises from 5470 fluorescence intensity (a.u.) to 5610 fluorescence intensity (a.u.).

First: TCCTAATCATAGCTTAAATCAGCGAGATTAGTCTTATTGTCGGAGTCACCTAGTGCAG
Second: ATTAATTAAGTAGAGTCAATTCTCAATTCTTTACAGCAGTCGGAGTCACCTAGTGCAG
The binding signal of the first is lower: 19200 fluorescence intensity (a.u.) for the first, 20700 fluorescence intensity (a.u.) for the second.

Compared with “ATAATTAAAAGCTTAATCACGTTTAGTTTTCACAGGCGCGCGGAGTCACCTAGTGCAG”, “CTGATTGATTTAGCGGCTCAACATATATACCAAGGCGGCGCGGAGTCACCTAGTGCAG” is higher in binding signal: 10400 fluorescence intensity (a.u.) for the first, 61100 fluorescence intensity (a.u.) for the second.

Going from “GCAATTAATGACCTATAGATAGTAGCATTCAATTTCCACTCGGAGTCACCTAGTGCAG” to “CCAATTGATTTGGATAACCAAACTCGTTACTCACTTCAACCGGAGTCACCTAGTGCAG”, the binding signal rises from 7190 fluorescence intensity (a.u.) to 37800 fluorescence intensity (a.u.).

First: CCGAAATTTTAGAATTAAATGATGAAACAAAATGTTATTACGGAGTCACCTAGTGCAG
Second: CAAACAATCAGATGCGAATTACAGCTTGGAAAGAGTACAGCGGAGTCACCTAGTGCAG
The binding signal of the first is higher: 13500 fluorescence intensity (a.u.) for the first, 3800 fluorescence intensity (a.u.) for the second.

Compared with “AGTGATTAATTCATTCCAAAAGACAGTAGCGACATCTATTCGGAGTCACCTAGTGCAG”, “AATGGAAATATCTGATGATTTACGTCAGCGAAATTGTTGTCGGAGTCACCTAGTGCAG” is lower in binding signal: 20300 fluorescence intensity (a.u.) for the first, 3520 fluorescence intensity (a.u.) for the second.

Going from “ATTATAAAATTTGTCATTGATGATAAGCACAAGGTCAATTCGGAGTCACCTAGTGCAG” to “CTATATAGAAATTGATGGTTAAATATTAAAATGTTTGATTCGGAGTCACCTAGTGCAG”, the binding signal rises from 4540 fluorescence intensity (a.u.) to 8060 fluorescence intensity (a.u.).

Going from “AGTGACGCCCTCTTGATTAGCGAATTCGGCGGAGCTTTTCCGGAGTCACCTAGTGCAG” to “AATAATTTTGTGTTCGCTATTGGAGGGTACACTAAGTTGACGGAGTCACCTAGTGCAG”, the binding signal falls from 10700 fluorescence intensity (a.u.) to 9680 fluorescence intensity (a.u.).

Compared with “TTTCAATCACCTCCGCTTCCTCCGCCGCCTCGGCGCGAAGCGGAGTCACCTAGTGCAG”, “CTCCAATTCATCTATAATCAATCTAATAGCCAATTCATACCGGAGTCACCTAGTGCAG” is higher in binding signal: 5430 fluorescence intensity (a.u.) for the first, 5900 fluorescence intensity (a.u.) for the second.

Compared with “CTTCTACCTAATTTATATAATCTGCTAGTACTATACTTACCGGAGTCACCTAGTGCAG”, “TGTGATTTATTTCTAAAATAATTTCTTGGCACGGTTCTTTCGGAGTCACCTAGTGCAG” is higher in binding signal: 6770 fluorescence intensity (a.u.) for the first, 30000 fluorescence intensity (a.u.) for the second.

Going from “ATATATAATCAATCCTGGCCAAAACAATCGGATTAATCTGCGGAGTCACCTAGTGCAG” to “TGGGTTGAACTTTGGGTTAATTGAAGTGTATAGCTTAATTCGGAGTCACCTAGTGCAG”, the binding signal falls from 6420 fluorescence intensity (a.u.) to 4440 fluorescence intensity (a.u.).

Compared with “TTCTGTCAATTAGGTGGGTGACATGTGGATCCCACGATATCGGAGTCACCTAGTGCAG”, “GAACAAATTGAAGAAGTAGAGATGCTGTTATTAAATATCGCGGAGTCACCTAGTGCAG” is higher in binding signal: 13200 fluorescence intensity (a.u.) for the first, 31300 fluorescence intensity (a.u.) for the second.

Going from “TGTATAATATGTTAATTGGACTTTTCACTATAGTTATGATCGGAGTCACCTAGTGCAG” to “GTCAAGTAACTGAACATTTTAATTGCTGCCGATTATTACCCGGAGTCACCTAGTGCAG”, the binding signal falls from 14000 fluorescence intensity (a.u.) to 13400 fluorescence intensity (a.u.).

First: CATCATGCATAATTATGGCCTAATAAATCAAGCAGAAAACCGGAGTCACCTAGTGCAG
Second: CATGATTAGCCTATGTGATACTACAATAAACATTCTCTAACGGAGTCACCTAGTGCAG
The binding signal of the first is lower: 9570 fluorescence intensity (a.u.) for the first, 20800 fluorescence intensity (a.u.) for the second.

Compared with “CCCTGGTATGCAAATCAATTAAAATTCTTTGGCCACTGTACGGAGTCACCTAGTGCAG”, “ACCACTATTGATTGAATTAGTGTTCATTGGTGAAGTTGTTCGGAGTCACCTAGTGCAG” is higher in binding signal: 5500 fluorescence intensity (a.u.) for the first, 46700 fluorescence intensity (a.u.) for the second.

Going from “GTAATGACTAATTAACAGTGGACCAAATTAAACCGTGTTCCGGAGTCACCTAGTGCAG” to “TTCTTTTCATCAATTTAGCTTCAACCCTCTGCAAACCCTGCGGAGTCACCTAGTGCAG”, the binding signal falls from 29900 fluorescence intensity (a.u.) to 3960 fluorescence intensity (a.u.).

First: ATTAATCTATAATTAGAGGCGCCTGTGGTGACTTCGTCAACGGAGTCACCTAGTGCAG
Second: CTTAATTGCTCAGGGATATCTGTTCTTTGATTAATCCTGGCGGAGTCACCTAGTGCAG
The binding signal of the first is lower: 3720 fluorescence intensity (a.u.) for the first, 30600 fluorescence intensity (a.u.) for the second.

First: AGAATAATTATCATCCACACCACTAAAATCCATCACCTCCCGGAGTCACCTAGTGCAG
Second: TTAGATTTAAACTTAAGACATTGATGAACTAAGGAATTTTCGGAGTCACCTAGTGCAG
The binding signal of the first is higher: 26200 fluorescence intensity (a.u.) for the first, 3570 fluorescence intensity (a.u.) for the second.

Going from “ACAATCTTATAGCTAATTTATTATATATGTTAGCTTTAAGCGGAGTCACCTAGTGCAG” to “AAGACTCCTTTGACTTAAATTACTGGGCGGATTAGGATTACGGAGTCACCTAGTGCAG”, the binding signal falls from 4320 fluorescence intensity (a.u.) to 3200 fluorescence intensity (a.u.).
